Lines with a small IC50 respond at low doses; a limit (>, <) means that the fit lies beyond the doses tested. The AUC spans the tested range (256-fold, ending at the top dose) of the same fit; it is 1 without any effect and falls as sensitivity rises. For part of these data: Where the top dose is marked as inferred, it comes from the curve model; the source does not state it.
Tests used:
Experiment in all cases: Viability of human cancer cell lines after 72 h of drug (GDSC screen)
Temsirolimus = compound: CO[C@H]1C[C@@H]2CC[C@@H](C)[C@@](O)(O2)C(=O)C(=O)N2CCCC[C@H]2C(=O)O[C@H]([C@H](C)C[C@@H]2CC[C@@H](OC(=O)C(C)(CO)CO)[C@H](OC)C2)CC(=O)[C@H](C)/C=C(\C)[C@@H](O)[C@@H](OC)C(=O)[C@H](C)C[C@H](C)/C=C/C=C/C=C/1C [Temsirolimus]; conditions: top dose 0.2 µM
Protocol: (§1)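 Human cancer cell lines in 384-well plates, medium with 10% serum, drug for 72 h over a 256-fold dose range (nine 2-fold or five 4-fold steps up to the top dose). Adherent lines were fixed and stained with the nucleic acid dye Syto60, suspension lines read with resazurin; signal relative to control wells, capped at 0 and 100%. One two-parameter sigmoid per drug and line, fitted in a mixed model over all curves with the slope shared within a line.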

SL 0101-1 = compound: CC(=O)O[C@@H]1[C@@H](OC(C)=O)[C@@H](O)[C@H](Oc2c(-c3ccc(O)cc3)oc3cc(O)cc(O)c3c2=O)O[C@H]1C [SL 0101-1]; conditions: top dose 10 µM; top dose inferred
Protocol: as §1

XMD15-27 = compound: C=CC(=O)Nc1ccc(C(=O)c2sc(Nc3ccc(N4CCN(C)CC4)cc3OC)nc2N)cc1 [XMD15-27]; conditions: top dose 10.24 µM; top dose inferred
Protocol: as §1

| Cell Line | AUC (Temsirolimus) | IC50 (Temsirolimus) [µM] | AUC (SL 0101-1) | IC50 (SL 0101-1) [µM] | AUC (XMD15-27) | IC50 (XMD15-27) [µM] |
| --- | --- | --- | --- | --- | --- | --- |
| ES1 (Ewing sarcoma, adherent) | 0.619 | 0.0265 | 0.983 | > 10 | 0.983 | > 10.2 |
| ES4 (Ewing sarcoma, adherent) | 0.58 | 0.0214 | 0.956 | > 10 | 0.959 | > 10.2 |
| ES5 (Ewing sarcoma, adherent) | 0.632 | 0.0307 | 0.966 | > 10 | 0.983 | > 10.2 |
| ES6 (Ewing sarcoma, adherent) | 0.711 | 0.0577 | 0.982 | > 10 | 0.961 | > 10.2 |
| ES7 (Ewing sarcoma, adherent) | 0.726 | 0.0558 | 0.98 | > 10 | 0.942 | > 10.2 |
| ES8 (Ewing sarcoma, adherent) | 0.456 | 0.00957 | 0.985 | > 10 | 0.963 | > 10.2 |
| ES-2 (ovary, adherent) | 0.891 | 0.183 | 0.991 | > 10 | 0.991 | > 10.2 |
| ESO26 (oesophagus, adherent) | 0.872 | 0.172 | 0.982 | > 10 | 0.912 | > 10.2 |
| ESO51 (oesophagus, semi-adherent) | 0.754 | 0.094 | 0.939 | > 10 | 0.963 | > 10.2 |
| ESS-1 (endometrium, adherent) | 0.857 | 0.137 | 0.976 | > 10 | 0.973 | > 10.2 |
| ETK-1 (biliary tract, adherent) | 0.555 | 0.0181 | 0.983 | > 10 | 0.973 | > 10.2 |
| EVSA-T (breast, adherent) | 0.815 | 0.0906 | 0.991 | > 10 | 0.991 | > 10.2 |
| EW-1 (Ewing sarcoma, semi-adherent) | 0.82 | 0.103 | 0.983 | > 10 | 0.946 | > 10.2 |
| EW-3 (Ewing sarcoma, adherent) | 0.779 | 0.0941 | 0.984 | > 10 | 0.958 | > 10.2 |
| EW-7 (Ewing sarcoma, semi-adherent) | 0.853 | 0.127 | 0.977 | > 10 | 0.979 | > 10.2 |
| EW-11 (Ewing sarcoma, adherent) | 0.497 | 0.0123 | 0.966 | > 10 | 0.968 | > 10.2 |
| EW-13 (Ewing sarcoma, suspension) | 0.8 | 0.109 | 0.985 | > 10 | 0.98 | > 10.2 |
| EW-16 (Ewing sarcoma, adherent) | 0.537 | 0.0159 | 0.942 | > 10 | 0.977 | > 10.2 |
| EW-18 (Ewing sarcoma, suspension) | 0.794 | 0.0995 | 0.958 | > 10 | 0.971 | > 10.2 |

| Cell Line | AUC (Temsirolimus) | IC50 (Temsirolimus) [µM] | AUC (SL 0101-1) | IC50 (SL 0101-1) [µM] | AUC (XMD15-27) | IC50 (XMD15-27) [µM] |
| --- | --- | --- | --- | --- | --- | --- |
| EW-24 (Ewing sarcoma, semi-adherent) | 0.956 | > 0.2 | 0.99 | > 10 | 0.993 | > 10.2 |
| EoL-1-cell (haematopoietic neoplasm, suspension) | 0.815 | 0.0943 | 0.972 | > 10 | 0.973 | > 10.2 |
| FADU (head and neck, adherent) | 0.885 | > 0.2 | 0.979 | > 10 | 0.982 | > 10.2 |
| FLO-1 (oesophagus, adherent) | 0.852 | > 0.2 | 0.977 | > 10 | 0.942 | > 10.2 |
| FTC-133 (thyroid, adherent) | 0.606 | 0.0252 | 0.981 | > 10 | 0.985 | > 10.2 |
| FU97 (stomach, adherent) | 0.663 | 0.0359 | 0.986 | > 10 | 0.98 | > 10.2 |
| FU-OV-1 (ovary, adherent) | 0.905 | > 0.2 | 0.959 | > 10 | 0.978 | > 10.2 |
| Farage (B-cell lymphoma, suspension) | 0.337 | 0.00483 | 0.992 | > 10 | 0.987 | > 10.2 |
| G-292 Clone A141B1 (osteosarcoma, adherent) | 0.786 | 0.15 | 0.949 | > 10 | 0.933 | > 10.2 |
| G-361 (melanoma, adherent) | 0.787 | 0.0829 | 0.988 | > 10 | 0.973 | > 10.2 |
| G-401 (kidney, adherent) | 0.68 | 0.0419 | 0.981 | > 10 | 0.965 | > 10.2 |
| G-402 (soft tissue, adherent) | 0.461 | 0.00943 | 0.947 | > 10 | 0.944 | > 10.2 |
| GAK (melanoma, adherent) | 0.941 | > 0.2 | 0.989 | > 10 | 0.989 | > 10.2 |
| GB-1 (glioma, adherent) | 0.864 | > 0.2 | 0.972 | > 10 | 0.979 | > 10.2 |
| GCIY (stomach, adherent) | 0.864 | > 0.2 | 0.977 | > 10 | 0.984 | > 10.2 |
| GDM-1 (acute myeloid leukaemia, suspension) | 0.986 | > 0.2 | 0.987 | > 10 | 0.911 | > 10.2 |
| GI-1 (glioma, adherent) | 0.744 | 0.0601 | 0.977 | > 10 | 0.987 | > 10.2 |
| GI-ME-N (neuroblastoma, adherent) | 0.761 | 0.0961 | 0.977 | > 10 | 0.923 | > 10.2 |
